# Experimental data as given in PubChem BioAssay AID624171 (National Center for Advancing Translational Sciences (NCATS), 2012).
# Screen size: about 410,000 compounds; about 1,200 (0.29%) were called active. The inconclusive results got no clear call from the source; some entries with a clear call stand among them for comparison. Calls come from the whole dose curve; as a rule, active = well fitted activation curve with a large enough effect; inconclusive = small, poorly fitted or top-dose-only effect; inactive = flat fitted curve, though single readings scatter. Potencies of inconclusive entries are doubtful fits and often do not repeat.
# Assay: qHTS of Nrf2 Activators; note: nearly all actives have a fitted effect of over 65% in size; for activation: % of control where 0% means no effect
# Conditions: AREc32 ARE-luciferase reporter (MCF7-derived line), luminescence, 24 h; activation: at 46.1 µM (top of the series)
# How it was run: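 ARE activation measured as luciferase luminescence (Steady-Glo, 30 min RT) in AREc32_Fluc cells after 24 hr compound exposure at 37 deg C, 5% CO2; cells seeded overnight at 1000/well in OPTI-MEM, 5% FBS.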
# Potency is the fitted concentration of half-maximal effect; tags give direction and shape of the fitted curve.
Structure (SMILES),activation,Potency
Cc1nc2ccccc2n1CCc1nc2c3ccccc3nc(SCc3ccccc3F)n2n1,inactive: 0.36%,–
Cc1cc(C)c(NC(=O)C(C)n2nc(C)c3sc4ccccc4c3c2=O)c(C)c1 (stereo not given),inactive: -0.603%,–
COc1cccc(CNC(=O)CCc2c(C)nn(-c3ccc(N4CCCC4)nn3)c2C)c1,inactive: 0.0644%,–
CC(/C=N/n1c(-c2ccc(Cl)cc2)n[nH]c1=S)=C\c1ccco1,–,active: 2.82 µM
O=C(Cn1ncc(Cl)c(Cl)c1=O)NC(=O)NC1CCCCC1,–,"inconclusive: 3.55 µM [activator, partial curve, poor fit]"
Cc1nc(SCC(=O)N2CCNC2=O)c2ccccc2n1,–,"inconclusive: 22.4 µM [activator, single point]"
CC(C)N1CCc2c(sc(NC(=O)CCS(=O)(=O)c3ccccc3)c2C(N)=O)C1,–,"inconclusive: 35.5 µM [activator, partial curve, poor fit]"
COc1cccc(N/C(SCc2cccc([N+](=O)[O-])c2)=C(/C#N)C(N)=O)c1,–,"inconclusive: 15.8 µM [activator, single point]"
COc1ccc(Br)cc1/C=N/Nc1ccccn1,–,"inconclusive: 2.82 µM [activator, full curve, poor fit]"
Cc1nn(C)c2c1c(C(F)(F)F)cc(=O)n2CC(=O)Nc1ccc(F)cc1F,inactive: -0.669%,–
CCN1C(=O)/C(=C\N(C(C)=O)c2ccccc2)OC1=S,–,"inconclusive: 15.8 µM [activator, single point]"
O=C1CC(c2ccccc2)CC(O)=C1C=Nc1ccccc1O (stereo not given),–,active: 14.1 µM
Cc1ccc(O)c(NC(=O)c2noc3c2CCCCC3)c1,–,"inconclusive: 2.51 µM [activator, partial curve, poor fit]"
CC1(C)CCSC(/C=C/c2ccccc2)=N1,–,"inconclusive: 3.55 µM [activator, single point]"
O=C(NN1C(=O)c2ccccc2NC1c1ccc([N+](=O)[O-])o1)c1ccc([N+](=O)[O-])cc1 (stereo not given),–,"inconclusive: 5.62 µM [activator, single point]"
COC(=O)c1cc(Cl)c(NC(=O)/C=C/c2ccc(OC)c(OC)c2)cc1OC,inactive: -0.194%,–
O=C(COC(=O)c1ccccc1)NC1CCCC1,inactive: -0.521%,–
COc1cccc(NC(=O)c2sc(Cl)nc2C)c1,–,"inconclusive: 15.8 µM [activator, single point]"
O=[N+]([O-])c1cc(C(F)(F)F)cc([N+](=O)[O-])c1Sc1n[nH]c(C(F)(F)F)n1,–,"inconclusive: 25.1 µM [activator, single point]"
O=C(/C=C/c1ccco1)NC(=S)Nc1cccc(-c2nc3ccccc3o2)c1,–,"inconclusive: 22.4 µM [activator, single point]"
COc1cc(/C=N/Nc2ccccc2[N+](=O)[O-])ccc1OC(=O)c1ccccc1F,–,"inconclusive: 15.8 µM [activator, single point]"
C=CCNC(=O)/C(C#N)=C/c1c(C)nn(-c2ccc(Cl)cc2)c1Cl,–,"inconclusive: 17.8 µM [activator, partial curve, poor fit]"
CN(C)CCN=c1cc(-c2ccccc2)oc2ccc(Cl)cc12,–,active: 11.2 µM

Structure (SMILES),activation,Potency
CNc1cc([N+](=O)[O-])ccc1N/C=C/C(=O)c1cccs1,–,"inconclusive: 11.2 µM [activator, partial curve, poor fit]"
CN(C)C(CNC(=O)c1cccc(C(F)(F)F)c1)c1ccco1 (stereo not given),–,"inconclusive: 22.4 µM [activator, single point]"
Cc1onc(-c2c(F)cccc2Cl)c1C(=O)Nc1nc2ccccc2[nH]1,–,"inconclusive: 22.4 µM [activator, single point]"
CCCCn1c(N)c(N(CCOC)C(=O)c2cc(-c3ccc(OC)cc3)nc3ccccc23)c(=O)[nH]c1=O,inactive: 2%,–
CC(=O)NCCNc1nc2cc(-c3cccc(C(F)(F)F)c3)sc2c(=O)n1C,inactive: 26.1%,–
Nc1cc2sc(-c3ccc(C(=O)O)cc3)nc2cc1Cl,inactive: -1.04%,–
Cc1cc(Br)cn2c(Cc3ccccc3)c(-c3ccco3)nc12,–,active: 10 µM
COC(=O)C1=C(C)N(C(C)c2ccccc2)C(=O)/C1=C\c1ccco1 (stereo not given),–,"inconclusive: 20 µM [activator, single point]"
O=c1oc2ccccc2nc1/C=C(O)/C=C\c1ccccc1,–,active: 15.8 µM
Cc1oc2ncn(C)c(=O)c2c1C(=O)Nc1ccccn1,–,"inconclusive: 4.47 µM [activator, partial curve]"
Oc1[nH]c2ccccc2c1N=Nc1nncc2ccccc12,–,"inconclusive: 11.2 µM [activator, partial curve, poor fit]"
COCCNC(=O)CSc1nc2cc3c(cc2c(=O)n1CCCCCC(=O)NCCc1ccc(OC)c(OC)c1)OCO3,inactive: -0.579%,–
CCOC(=O)C1=C(C)OC(N)=C(C#N)C1c1ccc(OC)c(CSc2ccccn2)c1 (stereo not given),–,"inconclusive: 20 µM [activator, single point]"
CCOC(=O)Cc1csc(NC(=O)CC)n1,inactive: -0.519%,–
O=C(/C=C/Nc1ccc(F)cc1)c1cccs1,–,active: 6.31 µM
CC1(OC(=O)C2CCCC2)C(=O)C=C2C=C(c3ccsc3)N(Cc3ccco3)C=C2C1=O (stereo not given),–,"inconclusive: 12.6 µM [activator, single point]"
COCCCNc1ccc([N+](=O)[O-])cc1C(=O)Nc1cccc(C)n1,–,"inconclusive: 11.2 µM [activator, single point]"
C=CCSc1ccccc1C(=O)Nc1ncn[nH]1,–,"inconclusive: 31.6 µM [activator, single point]"
O=C(NC(=S)/C(=C1\CCCCCN1)[N+](=O)[O-])c1ccccc1,–,"inconclusive: 1.58 µM [activator, full curve, poor fit]"
CCOc1cccc(/C=C2\NC(=S)N(c3ccccc3)C2=O)c1O,–,active: 11.2 µM
CCOC(=O)c1c(C)nc2sc3c(=O)[nH]cnc3c2c1-c1ccc(OC)cc1,inactive: 1.9%,–
Cc1c(C(=O)/C=C/c2ccccc2F)c2cc(O)ccc2n1C,–,"inconclusive: 11.2 µM [activator, partial curve, poor fit]"
